From patent US20050026235A1 (priority 2003, published 2005) come the findings set out here.

Structures are written as SMILES. pIC50: −log10 of the molar value.

The target of this assay is PLC from Bacillus cereus (Bacillus cereus, UniProt P09598).

As for `S=C([S-])OC1CC2CC1C1CCCC21.[K+]` (centres unmarked) [inhibitor 90, tricyclodecan-9-yl-xanthogenate K], the “mode of inhibition (Dixon plot)” value (Dixon plot of FIG. 13 data (FIG. 14)) is recorded as “partial inhibitor”. For the same molecule, for the setting “compound 60 fixed at 0.5 μM, visually approximated from initial rate vs inhibitor concentration (FIG. 13), 25° C.”, the pIC50 (as a rule, the negative decadic logarithm of the IC50, by convention in mol/L) is around 4.70.
